In the RNAGym collection of RNA variant scans (doi:10.7554/elife.90254) one finds self-cleavage data, which are given here for 167 variants.

B1: LINE1-mini (parent)
chain: GGCAGAGCUCAACACAGCGUGGCAAAGUGGCUGUGGCUAGACUGCC

Read counts are not given, so values of variants with three or more changes are uncertain.

In the series the parent is B1. As to the kind of experiment: self-cleavage, relative activity (ratio to wild type); higher = more cleavage; in vitro, sequencing; the parent is a self-cleaving ribozyme.
With A4U C18A G35C C37U, the self-cleavage was found to be 0.03.

As to A4U C10G G36C G44C, the self-cleavage turned out to be 0.02.

For A4U C8G U28G G35A G44U, the self-cleavage came out at 0.01.

For the variant A4U G5A C18U A24G G33U, the self-cleavage amounted to 0.06.

As to A4U G5C U34A G36C, the self-cleavage was 0.06.

Turning to A4U G7A G19A, the self-cleavage was 0.47.

On to A4U G5A C23G G33A G40U, for which the self-cleavage stood at 0.16.

On to A4U C10A G29C, for which the self-cleavage was determined as 0.01.

With A4U G7C G40C, the self-cleavage turned out to be 0.

For A4U G5C G22A U34A U38A C46U, the self-cleavage was found to be 0.02.

With A4U C8U A16C U20C C42G, the self-cleavage is 0.14.

For the variant A4U G17A G21A A24G A39U, the self-cleavage is 0.02.

For A4U G5C A16C C46A, the self-cleavage came out at 0.03.

With A4U G17C A25G, the self-cleavage was found to be 0.13.

A4U G17C G22U A25C G44A: the self-cleavage is 0.07.

On to A4U G17A A26U, for which the self-cleavage came to 0.15.

As to A4U C15G A24C G35C, the self-cleavage came to 0.01.

Turning to A4U C15G C18U A24G G30U, the self-cleavage is 0.

As to A4U C10A G21C C45U, the self-cleavage was 0.

A4U C10A C23G A39U: the self-cleavage amounted to 0.04.

For the variant A4U C31G C45U, the self-cleavage is 0.03.

With A4U G5C C8A C10U A25G A39C C42G, the self-cleavage worked out at 0.14.

With A4U C23A G29C U32A, the self-cleavage amounted to 0.03.

A4U C13G U38G: the self-cleavage turned out to be 0.04.

On to A4U C37U A41U C42G, for which the self-cleavage worked out at 0.02.

On to A4U C18A C31G G44A, for which the self-cleavage is 0.04.

On to A4U C10U U34A, for which the self-cleavage came to 0.1.

Take A4U G5U C23A A25G U38C: the self-cleavage worked out at 0.03.

As for A4U C18A U43G C46A, the self-cleavage was found to be 0.02.

In the case of A4U C23G C37U, the self-cleavage is 0.08.

Consider A4U G17A U20C A26U, for which the self-cleavage was 0.05.

As for A4U C15U G44A, the self-cleavage stood at 0.06.

As for A4U G7A U9A U28G, the self-cleavage stood at 0.03.

As to A4U C31A C45A, the self-cleavage amounted to 0.

On to A4U C31U U38C G44A, for which the self-cleavage worked out at 0.05.

A4U G7U C10U A39U: the self-cleavage stood at 0.13.

With A4U C15G C18A G40A, the self-cleavage was 0.03.

Consider A4U C15G A41U, for which the self-cleavage worked out at 0.01.

Consider A4U G17A G35U, for which the self-cleavage is 0.17.

A4U G7U C23U A24U G40A: the self-cleavage is 0.15.

As to A4U C15U C31U, the self-cleavage was determined as 0.04.

As for A4U G5C C37A, the self-cleavage came to 0.08.

Regarding A4U G5C C37U, the self-cleavage stood at 0.02.

In the case of A4U C15U A16U G19C, the self-cleavage was 0.14.

For the variant A4U G5U U9A G30A A39C G40U C42A, the self-cleavage stood at 0.19.

For A4U C10A U34C, the self-cleavage stood at 0.06.

Take A4U C23G U32C: the self-cleavage amounted to 0.05.

Consider A4U G17A G27C U28A C46A, for which the self-cleavage worked out at 0.03.

Consider A4U C10A A24G, for which the self-cleavage worked out at 0.02.

With A4U C10U U38A A41G G44U, the self-cleavage amounted to 0.03.

Turning to A4U C18A G21A A25U, the self-cleavage stood at 0.11.

Turning to A4U C8U C18U, the self-cleavage came to 0.57.

Regarding A4U G7C C31A, the self-cleavage stood at 0.24.

As to A4U C15G A39U U43C, the self-cleavage was found to be 0.02.

With A4U C13A C18G, the self-cleavage amounted to 0.06.

On to A4U C37U C45G, for which the self-cleavage was 0.01.

As for A4U C10A C18U, the self-cleavage is 0.07.

For A4U G5C A11C A12G G33A, the self-cleavage is 0.03.

For A4U G17C C18A G19A, the self-cleavage was 0.02.

With A4U C10G G17C C18A A26C U28C C31G G40A, the self-cleavage came to 0.01.

With A4U C31A C46U, the self-cleavage came to 0.05.

Regarding A4U G5C G17C U28A U38G C45U, the self-cleavage was determined as 0.05.

For the variant A4U C10A A14G G27C G29U C31A G35A G40U, the self-cleavage was determined as 0.01.

Consider A4U G5U G7A U9G A26C U28A, for which the self-cleavage worked out at 0.04.

Turning to A4U G5U C8A G17U A26C, the self-cleavage came out at 0.2.

Turning to A4U C15A G29A C31A A41C, the self-cleavage stood at 0.02.

With A4U C13A G29U G30U C37U C42U, the self-cleavage stood at 0.12.

Consider A4U G7A U9C A12U U20C A39C C46U, for which the self-cleavage was 0.02.

In the case of A4U C8U U20C A41U, the self-cleavage came out at 0.09.

Take A4U G5C U20G: the self-cleavage is 0.01.

As for A4U G7C G19U G29U G30A, the self-cleavage is 0.03.

Take A4U C10G G44U: the self-cleavage came to 0.02.

Regarding A4U G5C G22A G27C, the self-cleavage came out at 0.03.

On to A4U C18A U20A G21A, for which the self-cleavage was found to be 0.58.

On to A4U C15A U38C, for which the self-cleavage was determined as 0.11.

Turning to A4U G5U C13A A14C A39U, the self-cleavage stood at 0.02.

As to A4U C10G G35C C37A, the self-cleavage was 0.03.

As to A4U C10A U20A C37A, the self-cleavage was found to be 0.02.

Take A4U C18G G29C G44C: the self-cleavage is 0.14.

A4U C15A G21U G36A G40U A41C: the self-cleavage came to 0.03.

On to A4U C10U G29A, for which the self-cleavage stood at 0.1.

As to A4U C15U G21U G27A, the self-cleavage came to 0.25.

Regarding A4U G5U G17U, the self-cleavage came out at 0.04.

Take A4U G7U A12U C42U: the self-cleavage came to 0.03.

Regarding A4U G7C C31A G35C G44U C46G, the self-cleavage is 0.01.

For the variant A4U G7A C42G, the self-cleavage came out at 0.01.

With A4U G5U C13A, the self-cleavage turned out to be 0.24.

Consider A4U C13A C18A U38C, for which the self-cleavage was 0.02.

As to A4U C10A A12C U28A, the self-cleavage was found to be 0.03.

Regarding A4U G7U A16U A41C, the self-cleavage is 0.13.

As for A4U C13A G36U, the self-cleavage worked out at 0.15.

Take A4U C10U C18A G27U U28C: the self-cleavage came to 0.24.

Take A4U C15U G17A: the self-cleavage came to 0.03.

With A4U G5U U9G A41C, the self-cleavage amounted to 0.08.

With A4U G5U G7C, the self-cleavage came to 0.04.

Regarding A4U C8U C13U A41U G44U, the self-cleavage came to 0.64.

Take A4U G5A G17U C18A: the self-cleavage turned out to be 0.03.

Regarding A4U G5U A12G G21C C42U, the self-cleavage was 0.01.

On to A4U C15A C23U, for which the self-cleavage turned out to be 0.07.

For A4U C13U C45G, the self-cleavage was determined as 0.15.

A4U G7U A12G: the self-cleavage amounted to 0.05.

With A4U C13A A25U A41U C42U, the self-cleavage stood at 0.02.

Turning to A4U C18U G27A G35U, the self-cleavage was 0.09.

In the case of A4U C13U C15U, the self-cleavage is 0.08.

With A4U C8U A41U G44A, the self-cleavage turned out to be 0.35.

In the case of A4U C10A A39C U43C, the self-cleavage was 0.02.

For A4U G7C U28C C45A, the self-cleavage was 0.08.

As to A4U G5A C8U A25G G33A, the self-cleavage came out at 0.33.

On to A4U C37A C46U, for which the self-cleavage was found to be 0.01.

Consider A4U C13U U20G A25G G36A A41U C45A, for which the self-cleavage was 0.02.

On to A4U C13U G27C G33A, for which the self-cleavage was found to be 0.15.

Regarding A4U C18A G29A, the self-cleavage came out at 0.05.

Turning to A4U C15G G30C, the self-cleavage was 0.02.

Regarding A4U G5U G35C, the self-cleavage was determined as 0.08.

For A4U C8G G27U C42U, the self-cleavage worked out at 0.07.

Consider A4U G7C G33C G44C C45A, for which the self-cleavage was 0.01.

Take A4U C8U C10A U28C G29U: the self-cleavage was 0.43.

A4U C13G C15G A24G G36A: the self-cleavage stood at 0.01.

A4U G7A C8A C13A U34G G44C: the self-cleavage worked out at 0.12.

On to A4U C31A G33U G40C, for which the self-cleavage came to 0.08.

In the case of A4U G5C G27C, the self-cleavage stood at 0.04.

Turning to A4U C10U A16C C31A G35C, the self-cleavage was 0.01.

Consider A4U C18A G27A, for which the self-cleavage stood at 0.16.

On to A4U C31U C42A, for which the self-cleavage came to 0.05.

Take A4U G7C C15A G33C U38G: the self-cleavage turned out to be 0.07.

As for A4U C31U U38A, the self-cleavage came out at 0.02.

Take A4U C8U G33C A41C: the self-cleavage amounted to 0.01.

Turning to A4U C37A C45U, the self-cleavage was 0.06.

In the case of A4U G7U U20A A41C, the self-cleavage is 0.02.

For the variant A4U C10U G27A A39G C45U, the self-cleavage was 0.08.

On to A4U C18A C31A G40C, for which the self-cleavage was found to be 0.08.

Consider A4U C8G U9C A16G C18U C42U C46G, for which the self-cleavage was 0.01.

Take A4U C10A G30U U32C C42A: the self-cleavage is 0.02.

Regarding A4U G5U C13G A14G G17C C23A G27C C42G G44U, the self-cleavage came to 0.3.

Take A4U C23A G29C: the self-cleavage came to 0.43.

On to A4U G5A G7C A11C, for which the self-cleavage turned out to be 0.07.

As for A4U C10A G17U G19A, the self-cleavage was determined as 0.02.

With A4U C13G G44U C45U, the self-cleavage came to 0.04.

For A4U C10U G22U, the self-cleavage was 0.1.

For A4U C13G G19A G22U C23U A25U G30A A39U, the self-cleavage is 0.03.

On to A4U C45U C46U, for which the self-cleavage was determined as 0.35.

As for A4U G5A C10A G21C C37U, the self-cleavage worked out at 0.01.

In the case of A4U G5U C45G, the self-cleavage stood at 0.05.

On to A4U G5U U34A, for which the self-cleavage was 0.03.

A4U C15G C18U G21A A24C G27U G36A: the self-cleavage came to 0.

In the case of A4U C18U U20C, the self-cleavage was determined as 0.06.

Regarding A4U C13A G27C G44A C46G, the self-cleavage is 0.07.

For the variant A4U C8U C10A, the self-cleavage turned out to be 0.06.

Regarding A4U C13A G22C G29U U38A, the self-cleavage came out at 0.

Turning to A4U G5C C10A, the self-cleavage stood at 0.01.

Regarding A4U C15U A25U A41G, the self-cleavage amounted to 0.08.

In the case of A4U C18G A25U, the self-cleavage stood at 0.04.

As to A4U G7C G21A, the self-cleavage came out at 0.29.

As to A4U G5C U34G, the self-cleavage worked out at 0.12.

For A4U C15A G22A, the self-cleavage stood at 0.14.

With A4U C13A U32G, the self-cleavage came out at 0.03.

Consider A4U C8U A14U A16U, for which the self-cleavage is 0.13.

For A4U C15G G17A G44A, the self-cleavage was 0.02.

Regarding A4U C10U A12U G21A G40A, the self-cleavage came to 0.06.

Take A4U G5A C18A: the self-cleavage was 0.12.

With A4U C18U C23U, the self-cleavage was determined as 0.17.

On to A4U C10A A16C C45U, for which the self-cleavage stood at 0.04.

As for A4U C10G U20A G27U G29U, the self-cleavage amounted to 0.03.

For A4U C23G G36U C37U, the self-cleavage came out at 0.03.

Consider A4U G5A A26U G33U C37G C42U, for which the self-cleavage was found to be 0.01.

With A4U C23U A24C C46U, the self-cleavage is 0.28.

In the case of A4U G7U C15A U28G, the self-cleavage is 0.01.
